According to the antibiotic and cytotoxicity screens of Wong et al. (2023):
This is one part of the list.

Assays:
HSkMC = human skeletal muscle cells; assay: cytotoxicity call (relative viability < 0.9); conditions: 10 µM
HepG2 = assay: cytotoxicity call (relative viability < 0.9); conditions: 10 µM
S. aureus RN4220 = assay: growth inhibition call (relative growth <= 0.2); conditions: 50 µM

CN(C)CCCCNC(=O)[C@H]1C[C@H]2C(=O)N[C@@H](CCCC[N+](C)(C)C)C(=O)N2[C@H]1c1ccc(O)cc1
inactive: cytotoxicity call (HSkMC) | cytotoxicity call (HepG2) | growth inhibition call (S. aureus RN4220)

C[C@@H]1CCCCO[C@@H](CN(C)S(=O)(=O)c2ccc(F)cc2)[C@@H](C)CN([C@H](C)CO)C(=O)c2cc(NC(=O)C3CCCCC3)ccc2O1
inactive: cytotoxicity call (HSkMC) | cytotoxicity call (HepG2) | growth inhibition call (S. aureus RN4220)

Cc1noc(C)c1S(=O)(=O)Nc1ccc2c(c1)C(=O)N([C@H](C)CO)C[C@@H](C)[C@H](CN(C)S(=O)(=O)c1cn(C)cn1)O2
inactive: cytotoxicity call (HSkMC) | cytotoxicity call (HepG2) | growth inhibition call (S. aureus RN4220)

O=C(C[C@H]1CC[C@H]2[C@@H](COC[C@@H](O)CN2C(=O)c2cnccn2)O1)N1CCN(c2ccccc2)CC1
inactive: cytotoxicity call (HSkMC) | cytotoxicity call (HepG2) | growth inhibition call (S. aureus RN4220)

C[C@H]1CN([C@@H](C)CO)S(=O)(=O)c2ccc(C3=CCCC3)cc2O[C@H]1CN(C)C(=O)c1cnccn1
inactive: cytotoxicity call (HSkMC) | cytotoxicity call (HepG2) | growth inhibition call (S. aureus RN4220)

CC(C)C(=O)NCc1nnnn1-c1ccccc1
inactive: cytotoxicity call (HSkMC) | cytotoxicity call (HepG2) | growth inhibition call (S. aureus RN4220)

O=C(C[C@@H]1C=C[C@@H](NC(=O)CN2CCOCC2)[C@H](CO)O1)NCCc1ccccc1
inactive: cytotoxicity call (HSkMC) | cytotoxicity call (HepG2) | growth inhibition call (S. aureus RN4220)

CN1C(=O)c2cc(NS(C)(=O)=O)ccc2OC[C@H]2O[C@H](CC(=O)N3CCOCC3)CC[C@H]21
inactive: cytotoxicity call (HSkMC) | cytotoxicity call (HepG2) | growth inhibition call (S. aureus RN4220)

Cc1noc(C)c1S(=O)(=O)Nc1ccc2c(c1)CC(=O)N([C@H](C)CO)C[C@@H](C)[C@H](CN(C)S(=O)(=O)c1ccc(Cl)cc1)O2
inactive: cytotoxicity call (HSkMC) | cytotoxicity call (HepG2) | growth inhibition call (S. aureus RN4220)

COCC#Cc1cnc2c(c1)C(=O)N([C@H](C)CO)C[C@@H](C)[C@@H](CN(C)C(C)=O)O2
inactive: cytotoxicity call (HSkMC) | cytotoxicity call (HepG2) | growth inhibition call (S. aureus RN4220)

Cc1cc(C(=O)N2[C@@H]3CC[C@@H](C3)[C@H]2c2nc3cccc(OCc4ccc(F)cc4)c3[nH]2)n(C(C)(C)C)n1
inactive: cytotoxicity call (HSkMC) | cytotoxicity call (HepG2) | growth inhibition call (S. aureus RN4220)

C[C@@H]1CN([C@H](C)CO)C(=O)c2cc(NC(=O)CCN3CCOCC3)ccc2O[C@@H]1CN(C)CC1CCCCC1
inactive: cytotoxicity call (HSkMC) | cytotoxicity call (HepG2) | growth inhibition call (S. aureus RN4220)

C[C@H](CO)N1C[C@H](C)[C@H](CN(C)Cc2ccc(C(=O)O)cc2)Oc2ccc(NC(=O)Cn3cnnn3)cc2CC1=O
inactive: cytotoxicity call (HSkMC) | cytotoxicity call (HepG2) | growth inhibition call (S. aureus RN4220)

COC(=O)C[C@H]1CC[C@H]2[C@H](COc3ccc(NS(=O)(=O)c4ccccc4Cl)cc3C(=O)N2C)O1
inactive: cytotoxicity call (HSkMC) | cytotoxicity call (HepG2) | growth inhibition call (S. aureus RN4220)

C[C@@H]1CN([C@@H](C)CO)C(=O)c2cc(NC(=O)c3ccccc3)ccc2O[C@@H](C)CCCCO[C@@H]1CN(C)Cc1ccccc1
inactive: cytotoxicity call (HSkMC) | cytotoxicity call (HepG2) | growth inhibition call (S. aureus RN4220)

Cc1noc(C)c1NC(=O)Nc1ccc2c(c1)C(=O)N([C@@H](C)CO)C[C@@H](C)[C@@H](CN(C)C(=O)Cc1ccccc1)OCCCC[C@@H](C)O2
inactive: cytotoxicity call (HSkMC) | cytotoxicity call (HepG2) | growth inhibition call (S. aureus RN4220)

C[C@@H]1CN([C@@H](C)CO)C(=O)Cc2cc(NS(=O)(=O)c3ccc(F)cc3)ccc2O[C@H]1CN(C)S(C)(=O)=O
inactive: cytotoxicity call (HSkMC) | cytotoxicity call (HepG2) | growth inhibition call (S. aureus RN4220)

O=C(C[C@@H]1CC[C@H]2[C@@H](COC[C@H](O)CN2C(=O)c2ccncc2)O1)NC1CCC1
inactive: cytotoxicity call (HSkMC) | cytotoxicity call (HepG2) | growth inhibition call (S. aureus RN4220)

COc1ccc(S(=O)(=O)Nc2ccc3c(c2)CC(=O)N([C@H](C)CO)C[C@@H](C)[C@H](CN(C)C(=O)NC(C)C)O3)cc1
inactive: cytotoxicity call (HSkMC) | cytotoxicity call (HepG2) | growth inhibition call (S. aureus RN4220)

C[C@@H]1CN([C@H](C)CO)C(=O)c2cc(NC(=O)Nc3ccc(F)cc3)ccc2O[C@@H](C)CCCCO[C@@H]1CN(C)C(=O)C1CCCCC1
inactive: cytotoxicity call (HSkMC) | cytotoxicity call (HepG2) | growth inhibition call (S. aureus RN4220)

Cc1ccc(S(=O)(=O)Nc2ccc3c(c2)C(=O)N([C@H](C)CO)C[C@H](C)[C@@H](CN(C)C(=O)Nc2cccc4ccccc24)OCCCC[C@H](C)O3)cc1
inactive: cytotoxicity call (HSkMC) | cytotoxicity call (HepG2) | growth inhibition call (S. aureus RN4220)

Cc1ccc(S(=O)(=O)N2C[C@H](O)COC[C@@H]3O[C@H](CC(=O)N4CCc5ccccc5C4)CC[C@H]32)cc1
inactive: cytotoxicity call (HSkMC) | cytotoxicity call (HepG2) | growth inhibition call (S. aureus RN4220)

C[C@H](CO)N1C[C@H](C)[C@H](CN(C)Cc2ccc(C(=O)Nc3ccccc3N)cc2)OCc2cnnn2CCCC1=O
inactive: cytotoxicity call (HSkMC) | cytotoxicity call (HepG2) | growth inhibition call (S. aureus RN4220)

C[C@@H]1CN([C@@H](C)CO)C(=O)c2cccc(NC(=O)CCCCCC(=O)Nc3ccccc3N)c2O[C@@H]1CN(C)C(=O)Nc1ccccc1
inactive: cytotoxicity call (HSkMC) | cytotoxicity call (HepG2) | growth inhibition call (S. aureus RN4220)

C[N+](C)(C)CCCCNC(=O)[C@H]1C[C@H]2C(=O)NCC(=O)N2[C@H]1c1ccc(O)cc1
inactive: cytotoxicity call (HSkMC) | cytotoxicity call (HepG2) | growth inhibition call (S. aureus RN4220)
